Experimental data reported in PMC12820563, “FoxP3 forms a head-to-head dimer in vivo and stabilizes its multimerization on adjacent microsatellites”.
This is one part of the list.

target: T1, MBP-FoxP1dN (Mus musculus, UniProt P58462 326-579); assay: PD-seq (MBP pull-down with sequencing); 20 mM Tris-HCl pH 7.5, 100 mM NaCl, 1.5 mM MgCl2, 0.4 uM protein, 0.1 uM dsDNA library, 30 min, room temperature, amylose pull-down; high values mean tight binding; settings: protein: recombinant; tags: His6-MBP; chain copies: 2; dsDNA, one strand shown
T1 sequence: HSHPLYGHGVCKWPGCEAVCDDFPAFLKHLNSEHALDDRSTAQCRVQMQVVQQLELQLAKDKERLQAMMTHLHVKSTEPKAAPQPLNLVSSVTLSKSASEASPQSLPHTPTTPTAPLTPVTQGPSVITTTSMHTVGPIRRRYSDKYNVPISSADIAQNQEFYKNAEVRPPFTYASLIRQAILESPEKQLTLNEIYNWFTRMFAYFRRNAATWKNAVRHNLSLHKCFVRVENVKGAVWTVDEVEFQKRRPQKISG
How it was run: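 A degenerate double-stranded DNA library, filled in with Klenow, was added at 0.1 µM to 0.4 µM His6-MBP-tagged mouse FoxP3 or FoxP1 fragment lacking the N-terminus, expressed in E. coli. Incubation lasted 30 min at room temperature in Tris pH 7.5 buffer with NaCl and MgCl2, after which complexes were collected on amylose resin, washed three times, digested with proteinase K to free the DNA, barcoded by PCR and sequenced by Illumina. Binding is the pooled-replicate reads-per-million enrichment of pull-down over input.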

| Sequence | binding signal |
| --- | --- |
| GATGATTGTTCTCCCAGCTGATGAATTTCTAAAATCGAGTAAACAAATTTTCCTAATCTTTCTGTTCAAGCGCCATCTAC | 1.2 RPM ratio (pull-down/input) |
| GATGATTGTTCTCCCAGCTGATGAATTCATCCGATCGAGTAAACAAATTTTCCTAATCTTTCTGTTCAAGCGCCATCTAC | 0.817 RPM ratio (pull-down/input) |
| GATGATTGTTCTCCCAGCTGATGAATTGACCGAATCGAGTAAACAAATTTTCCTAATCTTTCTGTTCAAGCGCCATCTAC | 1.06 RPM ratio (pull-down/input) |
| GATGATTGTTCTCCCAGCTGATGAATTCCTTGCGTCGAGTAAACAAATTTTCCTAATCTTTCTGTTCAAGCGCCATCTAC | 0.884 RPM ratio (pull-down/input) |
| GATGATTGTTCTCCCAGCTGATGAATTGTACCATTCGAGTAAACAAATTTTCCTAATCTTTCTGTTCAAGCGCCATCTAC | 1.07 RPM ratio (pull-down/input) |
| GATGATTGTTCTCCCAGCTGATGAATTACAGCGGTCGAGTAAACAAATTTTCCTAATCTTTCTGTTCAAGCGCCATCTAC | 1.05 RPM ratio (pull-down/input) |
| GATGATTGTTCTCCCAGCTGATGAATTGTATTGGTCGAGTAAACAAATTTTCCTAATCTTTCTGTTCAAGCGCCATCTAC | 1.62 RPM ratio (pull-down/input) |
| GATGATTGTTCTCCCAGCTGATGAATTTTCTACGTCGAGTAAACAAATTTTCCTAATCTTTCTGTTCAAGCGCCATCTAC | 0.877 RPM ratio (pull-down/input) |
| GATGATTGTTCTCCCAGCTGATGAATTCTTTGAGTCGAGTAAACAAATTTTCCTAATCTTTCTGTTCAAGCGCCATCTAC | 0.88 RPM ratio (pull-down/input) |
| GATGATTGTTCTCCCAGCTGATGAATTTGGATAGTCGAGTAAACAAATTTTCCTAATCTTTCTGTTCAAGCGCCATCTAC | 0.91 RPM ratio (pull-down/input) |
| GATGATTGTTCTCCCAGCTGATGAATTTCTTATGTCGAGTAAACAAATTTTCCTAATCTTTCTGTTCAAGCGCCATCTAC | 0.889 RPM ratio (pull-down/input) |
| GATGATTGTTCTCCCAGCTGATGAATTGCTGAGTTCGAGTAAACAAATTTTCCTAATCTTTCTGTTCAAGCGCCATCTAC | 0.927 RPM ratio (pull-down/input) |
| GATGATTGTTCTCCCAGCTGATGAATTAAAAGCATCGAGTAAACAAATTTTCCTAATCTTTCTGTTCAAGCGCCATCTAC | 1.37 RPM ratio (pull-down/input) |
| GATGATTGTTCTCCCAGCTGATGAATTGTAGACTTCGAGTAAACAAATTTTCCTAATCTTTCTGTTCAAGCGCCATCTAC | 0.909 RPM ratio (pull-down/input) |
| GATGATTGTTCTCCCAGCTGATGAATTCGCTATATCGAGTAAACAAATTTTCCTAATCTTTCTGTTCAAGCGCCATCTAC | 1.02 RPM ratio (pull-down/input) |
| GATGATTGTTCTCCCAGCTGATGAATTCCGCTATTCGAGTAAACAAATTTTCCTAATCTTTCTGTTCAAGCGCCATCTAC | 0.879 RPM ratio (pull-down/input) |
| GATGATTGTTCTCCCAGCTGATGAATTCTGGTACTCGAGTAAACAAATTTTCCTAATCTTTCTGTTCAAGCGCCATCTAC | 0.832 RPM ratio (pull-down/input) |
| GATGATTGTTCTCCCAGCTGATGAATTTTGGTTCTCGAGTAAACAAATTTTCCTAATCTTTCTGTTCAAGCGCCATCTAC | 0.913 RPM ratio (pull-down/input) |
